# Source: article PMC12136788
# This is one part of the list.
# T1: UNK ZnF1-3 (human, UniProt Q9C0B0 31-174)
# T1 sequence: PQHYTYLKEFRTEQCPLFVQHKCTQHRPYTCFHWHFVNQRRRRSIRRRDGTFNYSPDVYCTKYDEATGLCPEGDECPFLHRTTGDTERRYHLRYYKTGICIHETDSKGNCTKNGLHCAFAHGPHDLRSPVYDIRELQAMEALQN
# B1: chr1:6239374:6239375:+_ENSMUSG00000025907_ENSMUST00000027040|mus_mus|FALSE|FALSE (ssRNA)
# RNA: GGGAGUUCUACAGUCCGACGAUCCUCCUGUGUGUGCCUGAUGUGCAGUGUGUCCUCUAAUUCCUUCAGGUGAUUUUGUUCUAAGCACUGAAAUUCAGCUCUCAAUGACUCGAUUUUUUCAUCAUGCAGCUUUUUCAGGUCUUCCAACAGAGGAUUGAGCAUCA
# B2: chr1:39494564:39494565:+_ENSG00000168653_ENST00000372967|hu_hu|hu_hu_hu_mus_True|28_98 (ssRNA)
# RNA: GGGAGUUCUACAGUCCGACGAUCAUGCAUUCGCCUCAUCGUUUUCUACCGAAGCAAGCACUCUUCGAAGUCAUCGAACUCUAUCUUGCACUCCUUUUUCGCCCGGGUAUAACCGAUCCCGUGUGCACACUCUAUCCACUCUUUCAACAGAGGAUUGAGCAUCA
# B3: chr17:66519878:66519879:+_ENSG00000108946_ENST00000358598|hu_mus|FALSE|FALSE (ssRNA)
# RNA: GGGAGUUCUACAGUCCGACGAUCACUUCUCUCGUUAUCAUCAAGGUGUGAAAACAGCACAUUCUUUUCGAUGGCCUUGGCUAAAGCAGCCAUUGUCUUAUAAUCUUUUGGAAUAACCUUUCUAACGUAGGAGGCAGCAUCCUCCAACAGAGGAUUGAGCAUCA
# B4: chrX:69798090:69798091:-_ENSMUSG00000031343_ENSMUST00000055966|mus_mus|mus_mus_mus_hu_False|28_108 (ssRNA)
# RNA: GGGAGUUCUACAGUCCGACGAUCAAGUCCCCAGGUUCUUGUCGUCUUGAUUCCCCUUGACCAGUGGUUCCAGGGAGAAUAUUAAUCAGGAAAAGAAUCCCAAGGCUGGUCACAUAACAGUGACUUGUUUGUGUGAUUAUCAUCCAACAGAGGAUUGAGCAUCA
# B5: chr16:32092491:32092492:-_ENSMUSG00000023791_ENSMUST00000096109|mus_hu|FALSE|FALSE (ssRNA)
# RNA: GGGAGUUCUACAGUCCGACGAUCUAUGUUUCUCUCUCGUAAUGAAGCCAACUCAUACGGAUCCACAUAAAGUCCUGCAGGAAUGUCCUGUUUAAUUAAGAGACGGCAGGUGUGCAAGUCCUCAAUGCUUUCCCCAAACUUCACCAACAGAGGAUUGAGCAUCA
# B6: chr7:141450121:141450122:+_ENSG00000106028_ENST00000265304|hu_mus|hu_hu_hu_mus_True|38_38 (ssRNA)
# RNA: GGGAGUUCUACAGUCCGACGAUCUCAUCCGUUCUAUGCCUUUUCUUUUGUCUGGUCACUCAGAAAUAUAAUGUUAUCAGCUAUGAUUGUUGUUGCUUGUCGCCUCACAUUGUUUUUAUCCAUGUACUCGCCAUAGUCCACUUUCAACAGAGGAUUGAGCAUCA
# B7: chr7:143079985:143079986:+_ENSG00000159840_ENST00000392910|hu_hu|FALSE|FALSE (ssRNA)
# RNA: GGGAGUUCUACAGUCCGACGAUCCUGAGCCGGAGCCGGAACCUGGGGCAGAGGCUGGGAGCUGGAAGGGGACUUCCAAGGAGGCAGGGGUGCUGUGCCCCCGGCUGCAGGCUUGGUACUGGACUUGGAACUGAAUGGAGUGGCCAACAGAGGAUUGAGCAUCA
# B8: chrX:140365796:140365797:-_ENSMUSG00000031285_ENSMUST00000033642|mus_hu|FALSE|FALSE (ssRNA)
# RNA: GGGAGUUCUACAGUCCGACGAUCCUUCUCAUUACUCAGUGCCUGCAAGGUUCUGGUUCGGUAGAAGCUACAGUGGGCGCUGUGAGUGGGGCUAGGCAACCCAUUCAUCCGGGAGCCUCGCAUGUUCCUGGAUGUCUUAUCUCUCAACAGAGGAUUGAGCAUCA
# B9: chr2:91074313:91074314:-_ENSMUSG00000002109_ENSMUST00000150427|mus_mus|FALSE|FALSE (ssRNA)
# RNA: GGGAGUUCUACAGUCCGACGAUCAGGUCGCCCCUUUAAGGAAGAUAGGUUUGUCCUUGAUGCCAAAGUUCCAGAUCAUAAUAUCUCCCCCUUUGGAGCCCACAGCCAGGGUACUGGGAUGAGUCGGGUGCCAUGCCAAGGACGCAACAGAGGAUUGAGCAUCA
# B10: chr17:1257564:1257565:-_ENSG00000108953_ENST00000571732|hu_mus|FALSE|FALSE (ssRNA)
# RNA: GGGAGUUCUACAGUCCGACGAUCACCCUGCAUGUCUGAGGUCCACAGCGUCAGGUUAUCACGUAGCAGCUGCAUGAUGAGCGUAGAGUCCUUAUAGCUUUCUUCACUCAGCGUGUCCAGUUCUGCAAUUGCGUCAUCAAAAGCCAACAGAGGAUUGAGCAUCA
# B11: 123982623_123982743_2596_CDS_ENSG00000168916_ENST00000504926|human|control|control (ssRNA)
# RNA: GGGAGUUCUACAGUCCGACGAUCGGCCGAUGGCAUAUUUUUCUGUUUAGUUUCCUCCUUGCCCAGCUCUUUCAAGGGGAGCUCACUUUUCCUUUCACAGUCUCCUCUCCCAGUCUGGGCCAUUUUCUGCUCUGCCAGCCUCUGCAACAGAGGAUUGAGCAUCA
# B12: 169799468_169801611_1790_CDS_ENSG00000000460_ENST00000359326|human|control|control (ssRNA)
# RNA: GGGAGUUCUACAGUCCGACGAUCCAACAGUAUUGAUAGGUUGAUGAGUUGAUAACAUUCUCCAGGGCAUGACUUUAUCAGAUGAGCCACUAUGGUGACAUGGUGUGCACACAGUUCAGCAGUCCCAUAUCGAGCAAGGAAGCACAACAGAGGAUUGAGCAUCA
# B13: chr1:109605286:109605287:-_ENSG00000197780_ENST00000461096|hu_mus|hu_hu_hu_mus_True|88_88 (ssRNA)
# RNA: GGGAGUUCUACAGUCCGACGAUCAAGUUUCAGAGUAACAUUCAGUAUACUUAAAUCAUGCAAUUAUCCUUAUUAUAAGCUAAGCAGAAUAAUAAUUUAAUACCGUAAGUGAACUACACACAAAGCCUGAACCGCGAAAAUGGUCAACAGAGGAUUGAGCAUCA
# B14: chr7:74146866:74146867:+_ENSG00000077809_ENST00000416070|hu_hu|FALSE|FALSE (ssRNA)
# RNA: GGGAGUUCUACAGUCCGACGAUCUUCCUUUGCAAGUAAUAUCCUCUCCAGGCGAGGAAUUCCGUAAGUAGAUGGCCUUCUAAAAGGAAUUCCUUCAGGAAGUCCUUCUACAUAAAGAUCUUCAACAUGAGACUGGAAAAGAGGCAACAGAGGAUUGAGCAUCA
# Target: T1, UNK ZnF1-3
# Experiment: nsRBNS (natural sequence RNA bind-n-seq); RBNS binding buffer (assumed for nsRBNS): 25 mM Tris pH 7.5, 150 mM KCl, 3 mM MgCl2, 0.01% Triton X-100, 500 ug/ml BSA, 20 U/ml SUPERase-In, 4 C; UNK is unkempt and MSI1 is Musashi-1; names of the RNAs are library labels; protein concentration not given here; high values mean tight binding
row,Binder,binding signal [enrichment R]
1,B1,0.498
2,B2,0.694
3,B3,1
4,B4,0.605
5,B5,1.13
6,B6,0.421
7,B7,1.58
8,B8,0.608
9,B9,1.3
10,B10,0.947
11,B11,0.549
12,B12,1.25
13,B13,0.691
14,B14,0.807
